Measured values reported in WO2018134681A1.

Target: TGF-β generated endogenously by the cultured cells (human CD4+ T cells)
Assay: cell-based or functional assay
Conditions: scale: % iTreg at 50 pg/ml antibody

B1: Ab1 (antibody, human IgG4 S228P, kappa)
heavy: QVQLVQSGAEVKKPGSSVKVSCKASGYTFSSNVISWVRQAPGQGLEWMGGVIPIVDIANYAQRFKGRVTITADESTSTTYMELSSLRSEDTAVYYCASTLGLVLDAMDYWGQGTLVTVSSASTKGPSVFPLAPCSRSTSESTAALGCLVKDYFPEPVTVSWNSGALTSGVHTFPAVLQSSGLYSLSSVVTVPSSSLGTKTYTCNVDHKPSNTKVDKRV[human IgG4 Fc with S228P (EU numbers) not written out]
light: ETVLTQSPGTLSLSPGERATLSCRASQSLGSSYLAWYQQKPGQAPRLLIYGASSRAPGIPDRFSGSGSGTDFTLTISRLEPEDFAVYYCQQYADSPITFGQGTRLEIKRTVAAPSVFIFPPSDEQLKSGTASVVCLLNNFYPREAKVQWKVDNALQSGNSQESVTEQDSKDSTYSLSSTLTLSKADYEKHKVYACEVTHQGLSSPVTKSFNRGEC
percentage of iTreg (FOXP3+CD25+) in stimulated human CD4+ T cells, no exogenous TGF-β; 15% without antibody: 8

B2: fresolimumab (antibody, human IgG4, kappa)
heavy: QVQLVQSGAEVKKPGSSVKVSCKASGYTFSSNVISWVRQAPGQGLEWMGGVIPIVDIANYAQRFKGRVTITADESTSTTYMELSSLRSEDTAVYYCASTLGLVLDAMDYWGQGTLVTVSSASTKGPSVFPLAPCSRSTSESTAALGCLVKDYFPEPVTVSWNSGALTSGVHTFPAVLQSSGLYSLSSVVTVPSSSLGTKTYTCNVDHKPSNTKVDKRV[human IgG4 Fc not written out]
light: ETVLTQSPGTLSLSPGERATLSCRASQSLGSSYLAWYQQKPGQAPRLLIYGASSRAPGIPDRFSGSGSGTDFTLTISRLEPEDFAVYYCQQYADSPITFGQGTRLEIKRTVAAPSVFIFPPSDEQLKSGTASVVCLLNNFYPREAKVQWKVDNALQSGNSQESVTEQDSKDSTYSLSSTLTLSKADYEKHKVYACEVTHQGLSSPVTKSFNRGEC
percentage of iTreg (FOXP3+CD25+) in stimulated human CD4+ T cells, no exogenous TGF-β; 15% without antibody: 7
